Assay results published in article PMC9911399, “Two distinct binding modes provide the RNA-binding protein RbFox with extraordinary sequence specificity”.
Changes are numbered by the printed parent chain; changes in the protein carry UniProt numbers. This is one part of the list.

T1: RBFOX1 RRM (Homo sapiens, UniProt Q9NWB1 109-208)
T1 sequence: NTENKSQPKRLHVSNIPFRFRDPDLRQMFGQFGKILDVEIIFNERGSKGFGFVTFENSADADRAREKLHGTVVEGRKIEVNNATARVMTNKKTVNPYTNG

B1: UAACAAG (DNA:RNA)
RNA: GGGAGACCGGAAUUCAGAUUGUCCUAACAAGUUAAAUCCCGUCGUAGCCACCA
DNA 1: CAATCTGAATTCCGGTCTCCC
DNA 2: TGGTGGCTACGACGGGATT
B2: ACUUGAU (DNA:RNA)
RNA: B1 RNA with U25A, A26C, A27U, C28U, A29G, G31U
DNA 1: CAATCTGAATTCCGGTCTCCC
DNA 2: TGGTGGCTACGACGGGATT
B3: GUUGAGA (DNA:RNA)
RNA: B1 RNA with U25G, A26U, A27U, C28G, A30G, G31A
DNA 1: CAATCTGAATTCCGGTCTCCC
DNA 2: TGGTGGCTACGACGGGATT
B4: GUUGUUU (DNA:RNA)
RNA: GGGAGACCGGAAUUCAGAUUGUCCGUUGUUUUUAAAUCCCGUCGUAGCCACCA
DNA 1: CAATCTGAATTCCGGTCTCCC
DNA 2: TGGTGGCTACGACGGGATT
B5: UUGCCGG (DNA:RNA)
RNA: B1 RNA with A26U, A27G, A29C, A30G
DNA 1: CAATCTGAATTCCGGTCTCCC
DNA 2: TGGTGGCTACGACGGGATT
B6: UGGUAAG (DNA:RNA)
RNA: B1 RNA with A26G, A27G, C28U
DNA 1: CAATCTGAATTCCGGTCTCCC
DNA 2: TGGTGGCTACGACGGGATT
B7: GGGGGCU (DNA:RNA)
RNA: B4 RNA with U26G, U27G, U29G, U30C
DNA 1: CAATCTGAATTCCGGTCTCCC
DNA 2: TGGTGGCTACGACGGGATT
B8: UCAGUGA (DNA:RNA)
RNA: B4 RNA with G25U, U26C, U27A, U30G, U31A
DNA 1: CAATCTGAATTCCGGTCTCCC
DNA 2: TGGTGGCTACGACGGGATT
B9: CACACAA (DNA:RNA)
RNA: B1 RNA with U25C, A27C, C28A, A29C, G31A
DNA 1: CAATCTGAATTCCGGTCTCCC
DNA 2: TGGTGGCTACGACGGGATT
B10: UUGAAUG (DNA:RNA)
RNA: B1 RNA with A26U, A27G, C28A, A30U
DNA 1: CAATCTGAATTCCGGTCTCCC
DNA 2: TGGTGGCTACGACGGGATT
B11: AUAUACU (DNA:RNA)
RNA: B4 RNA with G25A, U27A, G28U, U29A, U30C
DNA 1: CAATCTGAATTCCGGTCTCCC
DNA 2: TGGTGGCTACGACGGGATT
B12: CCCCGUC (DNA:RNA)
RNA: B4 RNA with G25C, U26C, U27C, G28C, U29G, U31C
DNA 1: CAATCTGAATTCCGGTCTCCC
DNA 2: TGGTGGCTACGACGGGATT
B13: CUUACUU (DNA:RNA)
RNA: B4 RNA with G25C, G28A, U29C
DNA 1: CAATCTGAATTCCGGTCTCCC
DNA 2: TGGTGGCTACGACGGGATT
B14: ACGGAAU (DNA:RNA)
RNA: B4 RNA with G25A, U26C, U27G, U29A, U30A
DNA 1: CAATCTGAATTCCGGTCTCCC
DNA 2: TGGTGGCTACGACGGGATT
B15: CGAGUAG (DNA:RNA)
RNA: B1 RNA with U25C, A26G, C28G, A29U
DNA 1: CAATCTGAATTCCGGTCTCCC
DNA 2: TGGTGGCTACGACGGGATT
B16: GAUACGA (DNA:RNA)
RNA: B4 RNA with U26A, G28A, U29C, U30G, U31A
DNA 1: CAATCTGAATTCCGGTCTCCC
DNA 2: TGGTGGCTACGACGGGATT
B17: GGACAGU (DNA:RNA)
RNA: B1 RNA with U25G, A26G, A30G, G31U
DNA 1: CAATCTGAATTCCGGTCTCCC
DNA 2: TGGTGGCTACGACGGGATT
B18: CUACGCA (DNA:RNA)
RNA: B1 RNA with U25C, A26U, A29G, A30C, G31A
DNA 1: CAATCTGAATTCCGGTCTCCC
DNA 2: TGGTGGCTACGACGGGATT
B19: CGUCUUC (DNA:RNA)
RNA: B4 RNA with G25C, U26G, G28C, U31C
DNA 1: CAATCTGAATTCCGGTCTCCC
DNA 2: TGGTGGCTACGACGGGATT
B20: AUAGACU (DNA:RNA)
RNA: B4 RNA with G25A, U27A, U29A, U30C
DNA 1: CAATCTGAATTCCGGTCTCCC
DNA 2: TGGTGGCTACGACGGGATT
B21: AUUCACA (DNA:RNA)
RNA: B4 RNA with G25A, G28C, U29A, U30C, U31A
DNA 1: CAATCTGAATTCCGGTCTCCC
DNA 2: TGGTGGCTACGACGGGATT
B22: UCAUUUC (DNA:RNA)
RNA: B4 RNA with G25U, U26C, U27A, G28U, U31C
DNA 1: CAATCTGAATTCCGGTCTCCC
DNA 2: TGGTGGCTACGACGGGATT
B23: UAAACUU (DNA:RNA)
RNA: B1 RNA with C28A, A29C, A30U, G31U
DNA 1: CAATCTGAATTCCGGTCTCCC
DNA 2: TGGTGGCTACGACGGGATT
B24: GUUCGGG (DNA:RNA)
RNA: B4 RNA with G28C, U29G, U30G, U31G
DNA 1: CAATCTGAATTCCGGTCTCCC
DNA 2: TGGTGGCTACGACGGGATT
B25: GGUGAAC (DNA:RNA)
RNA: B4 RNA with U26G, U29A, U30A, U31C
DNA 1: CAATCTGAATTCCGGTCTCCC
DNA 2: TGGTGGCTACGACGGGATT
B26: ACUUAGG (DNA:RNA)
RNA: B1 RNA with U25A, A26C, A27U, C28U, A30G
DNA 1: CAATCTGAATTCCGGTCTCCC
DNA 2: TGGTGGCTACGACGGGATT
B27: AUCCUUC (DNA:RNA)
RNA: B4 RNA with G25A, U27C, G28C, U31C
DNA 1: CAATCTGAATTCCGGTCTCCC
DNA 2: TGGTGGCTACGACGGGATT
B28: ACGGAUU (DNA:RNA)
RNA: B4 RNA with G25A, U26C, U27G, U29A
DNA 1: CAATCTGAATTCCGGTCTCCC
DNA 2: TGGTGGCTACGACGGGATT
B29: CAGUGAG (DNA:RNA)
RNA: B1 RNA with U25C, A27G, C28U, A29G
DNA 1: CAATCTGAATTCCGGTCTCCC
DNA 2: TGGTGGCTACGACGGGATT
B30: UCAGUUU (DNA:RNA)
RNA: B4 RNA with G25U, U26C, U27A
DNA 1: CAATCTGAATTCCGGTCTCCC
DNA 2: TGGTGGCTACGACGGGATT
B31: CACACUU (DNA:RNA)
RNA: B4 RNA with G25C, U26A, U27C, G28A, U29C
DNA 1: CAATCTGAATTCCGGTCTCCC
DNA 2: TGGTGGCTACGACGGGATT

What follows are binders tested against T1, RBFOX1 RRM (assay: EMSA; HiTS-Eq, 1 nM pool, 10 min; buffer printed only for the single-RNA assays: 10 mM Tris pH 7.5, 150 mM NaCl, 3.4 mM EDTA, 0.001% NP-40, 30 C). Conditions: tags: His6 N-terminal (pET28a); label: 5' 32P.
Procedure, shortened: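 A pool of RNA with 7 randomized nucleotides, 5′-radiolabelled and with DNA-annealed flanks, was equilibrated at 1 nM for 10 min in 50 µL with purified RbFox RRM, wild type or mutant, across increasing protein concentrations. Free RNA was separated by 8% native PAGE, excised, reverse-transcribed, barcoded by PCR and sequenced. Relative association constants were obtained from read-count changes of each RNA species versus the control reaction and normalised to the cognate motif.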
With B1 the binding signal was 0.00598 KA relative to UGCAUGU.
B2 was tested, and the binding signal was 0.00798 KA relative to UGCAUGU.
B3 was tested, and the binding signal was 0.0168 KA relative to UGCAUGU.
In the case of B4, the binding signal is reported as 0.0249 KA relative to UGCAUGU.
With B5 the binding signal was 0.0154 KA relative to UGCAUGU.
In the case of B6, the binding signal is reported as 0.0152 KA relative to UGCAUGU.
For B7, the binding signal was 0.0377 KA relative to UGCAUGU.
B8 was tested, and the binding signal was 0.00654 KA relative to UGCAUGU.
With B9 the binding signal was 0.00157 KA relative to UGCAUGU.
For B10, the binding signal was 0.037 KA relative to UGCAUGU.
In the case of B11, the binding signal is reported as 0.00138 KA relative to UGCAUGU.
For B12, the binding signal was 0.000367 KA relative to UGCAUGU.
In the case of B13, the binding signal is reported as 0.00379 KA relative to UGCAUGU.
With B14 the binding signal was 0.0072 KA relative to UGCAUGU.
With B15 the binding signal was 0.0107 KA relative to UGCAUGU.
With B16 the binding signal was 0.0158 KA relative to UGCAUGU.
B17 was tested, and the binding signal was 0.027 KA relative to UGCAUGU.
B18 was tested, and the binding signal was 0.00798 KA relative to UGCAUGU.
In the case of B19, the binding signal is reported as 0.0126 KA relative to UGCAUGU.
B20 was tested, and the binding signal was 0.00258 KA relative to UGCAUGU.
In the case of B21, the binding signal is reported as 0.000591 KA relative to UGCAUGU.
B22 was tested, and the binding signal was 0.00804 KA relative to UGCAUGU.
With B23 the binding signal was 0.0047 KA relative to UGCAUGU.
For B24, the binding signal was 0.0113 KA relative to UGCAUGU.
B25 was tested, and the binding signal was 0.0225 KA relative to UGCAUGU.
For B26, the binding signal was 0.00645 KA relative to UGCAUGU.
B27 was tested, and the binding signal was 0.00513 KA relative to UGCAUGU.
With B28 the binding signal was 0.00809 KA relative to UGCAUGU.
For B29, the binding signal was 0.00726 KA relative to UGCAUGU.
For B30, the binding signal was 0.00938 KA relative to UGCAUGU.
With B31 the binding signal was 0.000327 KA relative to UGCAUGU.
